# Measurements taken from article PMC4336329 (PLoS ONE, 2015).
# The whole screen tested about 310,000 compounds, of which about 14,000 (4.5%) showed an effect of 50% or more. The effect is printed as a negative number. The list shows a part of the results.
# Molecular target: human ether-à-go-go-related gene (hERG) potassium channel (human, UniProt Q12809)
# Assay: primary screen, population patch clamp on CHO cells stably expressing hERG
# 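Further: peak tail current of the secondary pulse compared with the same well before compound.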
# Sequence of human ether-à-go-go-related gene (hERG) potassium channel (Q12809 whole entry, looked up): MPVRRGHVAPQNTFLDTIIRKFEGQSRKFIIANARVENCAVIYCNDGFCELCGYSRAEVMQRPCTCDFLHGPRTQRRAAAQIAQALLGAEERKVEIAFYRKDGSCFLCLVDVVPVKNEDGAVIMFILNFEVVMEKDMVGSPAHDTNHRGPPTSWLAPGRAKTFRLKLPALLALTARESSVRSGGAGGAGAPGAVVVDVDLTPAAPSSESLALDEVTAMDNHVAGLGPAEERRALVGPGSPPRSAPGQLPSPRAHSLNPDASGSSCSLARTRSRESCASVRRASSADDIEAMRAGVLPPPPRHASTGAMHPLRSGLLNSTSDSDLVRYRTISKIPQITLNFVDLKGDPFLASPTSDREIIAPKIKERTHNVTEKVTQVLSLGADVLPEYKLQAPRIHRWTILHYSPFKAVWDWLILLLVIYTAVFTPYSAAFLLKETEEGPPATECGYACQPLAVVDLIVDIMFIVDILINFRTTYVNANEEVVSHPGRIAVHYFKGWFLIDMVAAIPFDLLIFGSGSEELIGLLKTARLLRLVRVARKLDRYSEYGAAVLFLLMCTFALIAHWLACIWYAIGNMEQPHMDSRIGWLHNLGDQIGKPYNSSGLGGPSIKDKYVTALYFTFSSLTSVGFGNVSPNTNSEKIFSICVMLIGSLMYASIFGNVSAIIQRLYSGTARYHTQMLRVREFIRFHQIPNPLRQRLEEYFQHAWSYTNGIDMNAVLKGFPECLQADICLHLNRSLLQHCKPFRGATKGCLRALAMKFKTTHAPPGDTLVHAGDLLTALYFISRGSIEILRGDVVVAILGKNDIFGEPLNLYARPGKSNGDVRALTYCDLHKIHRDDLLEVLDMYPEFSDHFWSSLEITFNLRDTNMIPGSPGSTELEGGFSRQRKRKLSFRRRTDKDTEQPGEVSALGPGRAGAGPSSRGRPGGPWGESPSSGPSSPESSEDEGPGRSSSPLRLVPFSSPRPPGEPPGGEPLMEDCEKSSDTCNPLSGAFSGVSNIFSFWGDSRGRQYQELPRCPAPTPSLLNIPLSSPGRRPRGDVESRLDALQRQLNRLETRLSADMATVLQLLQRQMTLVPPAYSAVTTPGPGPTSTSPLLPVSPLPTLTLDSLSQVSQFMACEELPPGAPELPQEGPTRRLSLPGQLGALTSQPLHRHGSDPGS
row,Structure (SMILES),"hERG current change (%, negative = inhibition) at 10uM [%]"
1,CO/N=C/c1ccc(N2CCOCC2)c([N+](=O)[O-])c1,0.313
2,CCn1cc(CNC(=O)CCc2ccc(OC)cc2)cn1,2.22
3,COc1cc(NC(=O)c2cccc(Cl)c2)c(OC)cc1NC(=O)CN1CCCCC1,-1.89
4,CC(NC(=O)c1ccc2c(c1)OCCO2)c1ccc(S(N)(=O)=O)cc1 (stereo not shown),29.2
5,COc1ccc(N2CCN(C(=O)CSc3nnnn3-c3ccc4c(c3)OCCO4)CC2)cc1,-17.2
6,Cc1cccc(NC(=O)NNC(=O)c2c(Cl)c(C)nn2C)c1,6.13
7,Cc1ccnc(NC(=O)c2cc(S(=O)(=O)NCc3ccccc3)ccc2C)c1,-17.4
8,O=S(=O)(c1ccc2c(c1)OCCO2)N1CCN(Cc2ccc3c(c2)OCO3)CC1,3.98
9,O=c1cccc2n1CC1CNCC2C1 (stereo not shown),30
10,COc1ccc(NCC(O)COc2ccc(C(C)(C)C)cc2)cc1 (stereo not shown),3.63
11,O=C(Nc1ccon1)Nc1cccc(Cl)c1Cl,7.46
12,CC(C)(C)c1ccc(C(=O)NNC(=O)c2ccc(Cl)cc2)cc1,9.85
13,COc1ccc(C(C(=O)NC2CCCC2)N(Cc2ccc(F)cc2)C(=O)c2ccn[nH]2)cc1OC (stereo not shown),3.61
14,COc1cc(C2C(C#N)=C(C)NC3=C2C(=O)c2ccccc23)cc(OC)c1OC (stereo not shown),17.1
15,Cc1ccc(C)c(/C(O)=C2/C(=O)C(=O)N(CCN3CCOCC3)C2c2ccc(C)o2)c1 (stereo not shown),-2.72
16,COc1ccc(NC(=O)CNS(=O)(=O)c2cccc3nonc23)c(OC)c1,-5.63
17,CN1c2ccsc2C(O)=C(C(=O)Nc2ccccc2)S1(=O)=O,9.57
18,Cc1n[nH]c(C)c1CCN(C)C(=O)C1CCC(=O)N(CC2CCCCC2)C1 (stereo not shown),15.1
19,COCCNC(=O)c1cc2nc(-c3ccc(F)cc3)cc(C(F)(F)F)n2n1,7.95
20,CC(NC(=O)Cn1c(=O)oc2cc(S(=O)(=O)N3CCCC3)ccc21)c1ccccc1 (stereo not shown),3.17
21,C[C@H](NC(=O)C1CCN(S(=O)(=O)c2ccccc2)CC1)C(=O)NCc1ccccc1,6.27
22,CCCCCCCN1CCC(=O)N([C@H](CO)CC(C)C)CC1,-63

row,Structure (SMILES),"hERG current change (%, negative = inhibition) at 10uM [%]"
1,Cn1c(=O)c2c(ncn2CC(O)CNc2cccc(Cl)c2)n(C)c1=O (stereo not shown),-15.8
2,COc1ccc(CCN2CC(C(=O)OCC(=O)Nc3c(C)nn(-c4ccccc4)c3C)CC2=O)cc1OC (stereo not shown),0.109
3,COc1ccc(C(C)N2CC34C=CC(O3)C(C(=O)O)C4C2=O)cc1 (stereo not shown),8.42
4,O=C(Cc1ccccc1)NCC(=O)N/N=C/c1ccc(C(=O)O)cc1,12.3
5,CN(C(=O)c1cc(C(=O)N(C)c2ccccc2)cc([N+](=O)[O-])c1)c1ccccc1,-14
6,CCOCCCNS(=O)(=O)Cc1ccccc1,0.149
7,Cc1ccccc1C(=O)Nc1ccnn1C1CCN(C2CCSCC2)CC1,-49.5
8,CCOC(=O)c1ccc(NC(=O)c2nn(CC)cc2Br)cc1,5.3
9,COc1ccc(CCNC(=O)CSc2nc3ccsc3c(=O)n2CC2CCC(C(=O)O)CC2)cc1OC (stereo not shown),13.5
10,CC(C)CCN(C(=O)CCSc1ccc(F)cc1)c1c(N)n(Cc2ccccc2)c(=O)[nH]c1=O,20
11,Cc1cccc(OCc2n[nH]c(=S)o2)c1C,6.03
12,CCn1cc(C(=O)NCCCN2CCC(C)CC2)c(=O)c2cc(S(=O)(=O)N(C)C3CCCCC3)ccc21,-80
13,O=C(Nc1cccc(F)c1)N1CCC(c2ccccc2)CC1,-9.33
14,CC1C/C(=N/Nc2ccc([N+](=O)[O-])cc2[N+](=O)[O-])CC(C)(C)C1 (stereo not shown),0.74
15,CCOC(=O)C1=C(C)N=c2s/c(=C\c3ccc(OCC(=O)O)c(OC)c3)c(=O)n2C1c1ccc(OC)cc1 (stereo not shown),13.7
16,O=c1[nH]n2c(-c3ccccc3)nc(O)c2c2ccccc12,-25.2
17,CC1=C(C#N)C(NC(=O)c2ccc(C)cc2)(C(F)(F)F)C(=O)N1 (stereo not shown),22.3
18,CCSc1ccccc1C(=O)NCc1ccc(OC)cc1,2.6
19,CCCCCCNCc1c(F)cccc1Cl,-6.27
20,O=C(O)c1ccc(N/N=C/c2cc3ccccc3nc2Cl)cc1,14.4
21,COc1ccc(C(C(=O)NC2CCCCC2)N(C(=O)c2sc(C)nc2C)c2ccccc2C)cc1 (stereo not shown),-18.1
